# Experimental data: PubChem BioAssay AID686978 (National Center for Advancing Translational Sciences (NCATS), 2013)
# Out of some 420,000 compounds screened, about 64,000 (15%) were called active. Inconclusive results, whose numbers are uncertain, are shown with a selection of clear calls. Calls come from the whole dose curve; as a rule, active = well fitted inhibition curve with a large enough effect; inconclusive = small, poorly fitted or top-dose-only effect; inactive = flat fitted curve, though single readings scatter. Potencies of inconclusive entries are left out as doubtful fits.
# Assay: qHTS for Inhibitors of human tyrosyl-DNA phosphodiesterase 1 (TDP1): qHTS in cells in absence of CPT; note: nearly all actives have a fitted effect of over 55% in size
# Details: DT40 Tdp1-/- hTDP1 cells, no CPT, ATP luminescence, 48 h; series mostly up to 46.2 µM
# How it was run: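 Compound effects on proliferation are scored in DT40 Tdp1-/-;hTDP1 cells in the absence of CPT. ATP levels (CellTiter-Glo luminescence) are recorded after a ≥48 hr, 37 °C incubation.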
# Potency is the fitted concentration of half-maximal effect; tags give direction and shape of the fitted curve.
row,SMILES,Potency
1,Cc1ccc(N2C(=O)CC(N(O)C3CC(=O)N(c4ccc(C)cc4)C3=O)C2=O)cc1 (centres undefined),"inconclusive [inhibitor, single point]"
2,O=C(Nc1ccc(Cl)cc1)c1ccc2snnc2c1,"inconclusive [inhibitor, partial curve]"
3,CC(C)(C)c1ccc(C(=O)N2CCC3(CC2)CC3C(=O)NCCc2ccccn2)cc1 (centres undefined),inactive
4,O=C1/C(=C/c2ccco2)SC(=S)N1CCC(=O)N1CCCCC1CCO (centres undefined),active: 20.6 µM
5,COc1ccccc1CN(Cc1nc2ccccc2c(=O)[nH]1)C(=O)Nc1ccc(C)cc1,"inconclusive [inhibitor, single point]"
6,CCN(Cc1ccccc1)Cc1c(O)ccc2oc(C)c(C(=O)Nc3ccccc3C)c12,active: 13 µM
7,CC1(c2nnc(-c3ccccc3)o2)CC(c2c(Cl)cccc2Cl)=NO1 (centres undefined),"inconclusive [inhibitor, single point]"
8,O=C(Cc1ccccc1)Nc1nnc2n1CCS2,inactive
9,CCCCSCc1[nH]c(=O)[nH]c1C(=O)CCCCC(=O)OCC,inactive
10,CN(C(=O)c1cccc(NC(=O)Cc2ccc(NC(=O)C3CCCN(C(=O)C4CCCCC4)C3)cc2)c1)C1CC1 (centres undefined),"inconclusive [inhibitor, single point]"
11,CCc1ccc(-c2nn(CC(=O)Nc3ccccc3)c3c2cnc2ccc(F)cc23)cc1,inactive
12,COc1cc(Cl)cc(/C=C/c2ccc3ccccc3n2)c1OC(C)=O,"inconclusive [inhibitor, single point]"
13,CN(c1ccccc1)S(=O)(=O)c1ccc(Cl)c(C(=O)OCC(=O)c2c(N)n(C)c(=O)n(C)c2=O)c1,"inconclusive [inhibitor, single point]"
14,COc1ccc(-n2c(N)c(C(=O)NCc3ccco3)c3nc4ccccc4nc32)cc1OC,"inconclusive [inhibitor, partial curve]"
15,COc1ccc(N2CCN(C(=O)c3cn(CC(C)C)c(=O)c4c3c3ccccc3n4C)CC2)cc1,active: 23.1 µM
16,O=C(NCC1CCCO1)c1ccc(Cl)c(S(=O)(=O)N2CCCCC2)c1 (centres undefined),inactive
17,CSc1ncc(Cl)c(C(=O)Nc2ccccc2C)n1,inactive
18,CC1(C)CC(=O)C2=C(C1)N(c1ccccc1C#N)C(N)=C(C#N)C2c1cccs1 (centres undefined),"inconclusive [inhibitor, partial curve]"
19,CCc1ccc(CN2CCCC(CNC(=O)c3cc(OC)cc(OC)c3)C2)cc1 (centres undefined),"inconclusive [inhibitor, single point]"
20,O=Cc1cn(CC(=O)Nc2ccc(F)cc2)c2ccccc12,active: 9.2 µM
21,CCOC(=O)c1cc(-c2ccccc2)n(-c2cccc(C(=O)Nc3ccc(OC)cc3)c2)c1C,"inconclusive [inhibitor, single point]"
22,O=C(Cn1c(=O)c2cccn2c2ccccc21)Nc1cc(F)ccc1F,"inconclusive [inhibitor, single point]"

row,SMILES,Potency
1,COC(=O)C1=C(C)NC(C)=C([N+](=O)[O-])[C@H]1c1ccccc1C(F)(F)F,active: 11.2 µM
2,CC(NC(=O)CN1C(=O)NC(Cc2ccccc2)(Cc2ccccc2)C1=O)C12CC3CC(CC(C3)C1)C2 (centres undefined),"inconclusive [inhibitor, single point]"
3,CC(C)(C)C1CCc2c(sc(NC(=O)Cn3nnc(-c4ccccc4F)n3)c2C#N)C1 (centres undefined),inactive
4,CC(C)C(=O)Nc1cccc(NC(=O)c2cccc(Br)c2)c1,"inconclusive [inhibitor, single point]"
5,COc1cc(/C=N\NC(=O)c2ccccc2F)ccc1Oc1ccc([N+](=O)[O-])cn1,active: 4.61 µM
6,CC(Oc1ccc(F)cc1)C(=O)Nc1cc(Cl)ccc1-n1cncn1 (centres undefined),"inconclusive [inhibitor, single point]"
7,O=C(C1COc2ccccc2O1)N1CCN(c2nc3ccccc3s2)CC1 (centres undefined),"inconclusive [inhibitor, single point]"
8,Cn1c(C(=O)NCc2cccnc2)cc2sc(Cl)cc21,"inconclusive [inhibitor, single point]"
9,O=C(Cn1ccc(C(F)(F)F)n1)NNC(=O)c1cccnc1,inactive
10,CN(C(=O)c1cccc(NC(=O)Cc2ccc([N+](=O)[O-])cc2)c1)C1CC1,"inconclusive [inhibitor, single point]"
11,COC(=O)c1ccccc1NC(=O)Cn1c(=O)n(-c2cccc(OC)c2)c(=O)c2c(C)c(C(=O)N(C)C)sc21,inactive
12,CCCC(O)(CCN(C)C)c1ccc(OC)cc1 (centres undefined),"inconclusive [inhibitor, single point]"
13,COc1ccc(-c2[nH]ncc2C(=O)NCc2ccccc2C)cc1,inactive
14,Cc1ccc(S(=O)(=O)NC(C)CCc2ccccc2)cc1C(N)=O (centres undefined),active: 18.4 µM
15,COc1ccc(OC)c(Nc2nc3nonc3nc2N2CCCC(C)C2)c1 (centres undefined),"inconclusive [inhibitor, partial curve, poor fit]"
16,Cc1cc(NS(=O)(=O)c2ccc(NC(=O)c3cc4c(=O)n5ccccc5nc4s3)cc2)nc(C)n1,"inconclusive [inhibitor, single point]"
17,COc1ccccc1N1CCN(C(C)C(=O)Nc2ccc(S(=O)(=O)N3CCOCC3)cc2)CC1 (centres undefined),active: 13 µM
18,Cc1ccccc1NC(=O)C(C)c1cccc(C(=O)c2ccccc2)c1 (centres undefined),"inconclusive [inhibitor, single point]"
19,COc1cccc(/C=N/NC(=O)c2cc(-c3cccn3C)n[nH]2)c1O,active: 6.51 µM
20,CC(=O)Nc1cccc(NC(=O)C(=O)NCCc2sc(-c3ccccc3)nc2C)c1,active: 1.16 µM
21,C#Cc1ccc([C@@H]2C=C(C(=O)NCc3nc4ccccc4[nH]3)O[C@H](OCC)[C@H]2CCCO)cc1,"inconclusive [inhibitor, single point]"
22,CCOC(=O)c1sc2ccc(S(=O)(=O)N3CCCCC3)cc2c1N,"inconclusive [inhibitor, single point]"
